In ChEMBL document CHEMBL1201862, “PubChem BioAssay data set” (2004):

Test system: NCI-H322M
Assay: DTP human tumour cell line panel, 48 h

Compound	GI50
O=[N+]([O-])c1cccc(/C=N/N=c2\ccc3ccccc3[nH]2)c1O	inactive: 1.77 µM
CC1(C)C2CCC3CC(CCC#N)CCC3C21C#N (configuration not stated)	inactive: > 100 µM
CSc1cc(-c2cccs2)sc1-c1cc(SC)c(-c2sc(-c3sc(-c4cccs4)cc3SC)cc2SC)s1	inactive: > 100 µM
O=C1OC(CS(=O)(=O)c2ccccc2)CC1O (configuration not stated)	inactive: > 100 µM
CN(C)CCNC(=O)c1cccc2c1nc(-c1ccccn1)c1ccccc12	inactive: 16 µM
NC(CSC1c2ccccc2-c2ccccc21)C(=O)O (configuration not stated)	inactive: > 100 µM
Clc1ccc(OCc2nn3c(CCc4nnc5sc(COc6ccc(Cl)cc6)nn45)nnc3s2)cc1	inactive: 41 µM
CSc1ccc2c(c1)C(N1CCN(C)CC1)Cc1ccccc1S2 (configuration not stated)	inactive: 7.94 µM
COc1cc(-c2nccc3cc(OC)c(OC)cc23)ccc1O	inactive: 49.1 µM
Cc1cc(/N=N/c2ccccc2C)ccc1N	inactive: 29.5 µM
O=C1OC[C@@H]2Cc3c([nH]c4ccccc34)[C@@H](c3ccc(O)cc3)N12	inactive: 32.3 µM
Cc1ccc(C2=Nc3cc(C)c(Cl)cc3S(=O)(=O)NN2)cc1	inactive: > 100 µM
O=C(Nc1ccccc1)OCCN=C1c2ccccc2C(Br)C(Br)c2ccccc21 (configuration not stated)	inactive: 15.8 µM
O=C(c1cccnc1)N1N=C(c2ccccc2)CC1(O)c1cc(F)c(Cl)cc1Cl (configuration not stated)	inactive: 32.2 µM
COc1cc(Nc2nc3cc(C(F)(F)F)ccc3nc2-c2ccccc2)cc(OC)c1OC	inactive: > 100 µM
COc1cc(NCc2ccc3nc(N)nc(N)c3c2C)cc(OC)c1OC	active: 0.538 µM
CC(C)=CCC[C@@H](C)C1=C(Nc2ccccc2)C(=O)C(C)=C(O)C1=O	inactive: 3.37 µM
C=CCN1C(=O)/C(=C/c2ccc(C)cc2)NC1=S	inactive: > 100 µM
[O-]c1c2cc(-[n+]3c(-c4ccccc4)cc(-c4ccccc4)cc3-c3ccccc3)cc1CO[C@@H](c1ccccc1)[C@H](c1ccccc1)OCCOCCO[C@@H](c1ccccc1)[C@H](c1ccccc1)OC2	active: 0.363 µM

Compound	GI50
CC(C)C(=O)N1C(=O)O[C@@H](c2ccccc2)[C@H]1C	inactive: > 100 µM
COC1C2c3ccccc3C(C#N)(Cc3ccc4c(c32)OCO4)N1C(=O)c1ccccc1 (configuration not stated)	inactive: > 100 µM
O=C1Oc2ccccc2C(=O)/C1=C1/C=C(c2ccccc2)SS1	inactive: > 100 µM
CCSc1nn(-c2c3ccccc3nc3ccccc23)c(=S)s1	inactive: > 100 µM
Cc1c2ccnc(-c3ccccc3)c2cc2c1[nH]c1ccccc12	inactive: 3.38 µM
N#CCCN(CCCCN(CCC#N)C(=O)Nc1ccccc1)C(=O)Nc1ccccc1	inactive: > 100 µM
N#C/C(=C/C=C/c1ccco1)C(N)=O	inactive: > 10 µM
S=C(N/N=C\c1ccccn1)N(Cc1ccccn1)Cc1ccccn1	active: 0.962 µM
COC1=CC(=O)C2[C@H]3Cc4ccccc4[C@H]3C2(C)C1=O (some centres not stated)	inactive: > 100 µM
COc1cc(/C=C2\CCC(C)C3=C2NC(=S)NC3c2cc(OC)c(OC)c(OC)c2)cc(OC)c1OC (configuration not stated)	inactive: 69.2 µM
COc1ccc(N2C(=O)C3c4[nH]c5ccc([N+](=O)[O-])cc5c4C4CCC(C(C)(C)C)CC4C3C2=O)cc1 (configuration not stated)	inactive: 25.4 µM
O=c1oc2ccc3ccccc3c2cc1-c1cn2ccsc2n1	inactive: > 100 µM
N=c1oc2ccccc2cc1-c1nc2ccccc2c(=O)[nH]1	inactive: 66.7 µM
Clc1ccc(Cl)c(SCCCN2CCNCC2)c1	inactive: 17.4 µM
COC(=O)C(/C(=N/N)C(=O)Nc1cc(Cl)c(Cl)cc1Cl)c1nc2ccc(Cl)cc2nc1O (configuration not stated)	inactive: > 100 µM
Cc1cc2ccccc2n2c1nc1ccccc12	inactive: > 100 µM
NC1=C(N2CCOCC2)C(=O)NC2=N/C(=C\c3ccccc3O)C(=O)N21	inactive: > 100 µM
CC(CCC(=O)O)(c1cc(Br)c(O)c(Br)c1)c1cc(Br)c(O)c(Br)c1	inactive: 36.6 µM

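Five concentrations, 48 hours, 96-well plates. GI50 marks 50% less growth.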 Activity calls are given as the source filed them. No stated cut-off is given here; in the data, active = GI50 up to about 1.1 µM and inactive = higher.
